According to publication PMC12136788:
The list shows a part of the results.

T1: UNK ZnF1-3 (human, UniProt Q9C0B0 31-174)
T1 sequence: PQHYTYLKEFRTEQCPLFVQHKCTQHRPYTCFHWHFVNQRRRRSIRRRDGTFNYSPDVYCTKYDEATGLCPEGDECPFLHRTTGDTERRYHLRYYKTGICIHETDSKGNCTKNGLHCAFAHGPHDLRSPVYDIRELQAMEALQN

B1: chr5:40767622:40767623:-_ENSG00000132356_ENST00000397128|hu_mus|hu_hu_hu_mus_False|28_48 (ssRNA)
RNA: GGGAGUUCUACAGUCCGACGAUCAUCUUUUAUUGCGGCCCUCUUCAUGGGAUCCACCUGCAGCAUAUGUUUCAAAAGGCUGAUUACAGAAGGAUUUAAGUACUGAGGGGUAUAGAAGAUCCCAUCACAUAUCUUCUUAAAAAGCAACAGAGGAUUGAGCAUCA
B2: chr7:26236612:26236613:-_ENSG00000122566_ENST00000356674|hu_mus|FALSE|FALSE (ssRNA)
RNA: GGGAGUUCUACAGUCCGACGAUCAACAAACAGCUUCUUCACAGUCACAUGGGCUCCUGGUUUUCCAGACUCCUCUCUUGCUACAGCACGUUUUGGCUCAACUACCCUGCCAUCAAUGGAAUGGGGCCUUGCAGCCAUGGCAGCCAACAGAGGAUUGAGCAUCA
B3: chr19:8913615:8913616:-_ENSMUSG00000071658_ENSMUST00000096259|mus_hu|mus_mus_mus_hu_False|98_98 (ssRNA)
RNA: GGGAGUUCUACAGUCCGACGAUCAGGGUACCAAAACACCCUGCCUCAAAUGGGUGCCCCACCCAGUAGGGAGUUGCAGCUGAAAGUAUCUGAUGCAGAAGCAGUGACUAUACGAAAGGAGGCCCCUGGGGAGGGCCAGGCCAGCAACAGAGGAUUGAGCAUCA
B4: chr10:33190432:33190433:-_ENSG00000150093_ENST00000302278|hu_mus|hu_hu_hu_mus_True|48_98 (ssRNA)
RNA: GGGAGUUCUACAGUCCGACGAUCUACAUUUUCCAAACCUGCACAUGAAUAAAACCCUGGCCACAGAGCCCCAAAACUACCCUACUGUGACUAUGGAGCUGCUGCUGUGAGCUUGGUGUUGCAAAAUCCGCCUGAGUAGGAUUCCAACAGAGGAUUGAGCAUCA
B5: chr5:128440902:128440903:+_ENSG00000066583_ENST00000173527|hu_mus|hu_hu_hu_mus_True|78_88 (ssRNA)
RNA: GGGAGUUCUACAGUCCGACGAUCUUGAACGGUGCUGCCAAGUCCUUUAGGGUAUUGUUCUGUUACAAUAACUGGAAUCCCUAAGAUCCGAGCUCCUUGCAACAGUCUCUGUCCCACACUAAUGAUGUCCCCAAAGUAUUUGAUCAACAGAGGAUUGAGCAUCA
B6: chr14:35078925:35078926:-_ENSG00000129515_ENST00000362031|hu_mus|FALSE|FALSE (ssRNA)
RNA: GGGAGUUCUACAGUCCGACGAUCAAAAUUUGGCAAUGAACUCUUUGUGUGAACGGUGAACUUGACUCUAUCCCUCUCACUGAGCGCGUCUGAAAUGUCCACCUGCAGAGCAGCGUCACUCUGGAGAUCUACAUUUAUUGCUUUCAACAGAGGAUUGAGCAUCA
B7: chr11:100904286:100904287:+_ENSMUSG00000019302_ENSMUST00000044721|mus_mus|FALSE|FALSE (ssRNA)
RNA: GGGAGUUCUACAGUCCGACGAUCGUGGAUGAUGCCGAGGAUAACAGACAUCUUCAUCUUGAAGGAGUUGAGGAAGGUCAGCUUGUUGGUUGCAAUGUUCCAAAUCGGAUCAAUGCCAAACGGGUACGGGCCACCAAAAACUCCCAACAGAGGAUUGAGCAUCA
B8: 25765075_25765605_2889_CDS_ENSMUSG00000040907_ENSMUST00000080882|mouse|control|control (ssRNA)
RNA: GGGAGUUCUACAGUCCGACGAUCCAGGUCAGCCCACUGGACCACCACGAUACUCACAAAGAAGGCUGUGUGGCAUGUGAACUCUACCACCUUCCUCUGCUCAUAAGUCCACUGCUGCCCAUAACUGUCUUCUAGGUCAUUGACCAACAGAGGAUUGAGCAUCA
B9: chr12:8504966:8504967:-_ENSMUSG00000054364_ENSMUST00000067384|mus_mus|FALSE|FALSE (ssRNA)
RNA: GGGAGUUCUACAGUCCGACGAUCCAUACAAGUGUGGUCAGAAUGCUGUCUUAUGCAAAUGACAAGUACACUGGGUGUCAAACAAUGGGACAAUUGUGCAAAGAACUCUUUCAUCAACAACAAAAAGCUUCAGCGUUUAAAUAACAACAGAGGAUUGAGCAUCA
B10: chr17:57814845:57814846:+_ENSG00000062716_ENST00000262291|hu_hu|motif|central (ssRNA)
RNA: GGGAGUUCUACAGUCCGACGAUCCUGUUUCUCUAUACGUUGCACAUACUGUUGAUGCACUCCUUCAACAUAAUACGUAGCGGUAAGCACAGCAAGCAGCAGUAAAAAAGACACCACAAUGCUUUGACGAUGCCAUAAUUUUGACAACAGAGGAUUGAGCAUCA
B11: chr1:138071448:138071449:+_ENSMUSG00000041642_ENSMUST00000075164|mus_hu|FALSE|FALSE (ssRNA)
RNA: GGGAGUUCUACAGUCCGACGAUCCUAGAAGACUCCCUGGGGGCUGUGUCGGGGACAGGCCUGAGCUGCAGAGUCGAAGGAGCAGUUCCCUCCUCUGCAAAGCAAACAGAGGAGGCGGCCCUGGAGGGCCGGGGCAGCGGACUCCAACAGAGGAUUGAGCAUCA
B12: 43326760_43339217_387_CDS_ENSMUSG00000022337_ENSMUST00000022962|mouse|control|control (ssRNA)
RNA: GGGAGUUCUACAGUCCGACGAUCAAUGGCAAUCUUACGCUUUCUGGCAGCAGUGUUAGUUGGAUCUUCUUGCAAAAUCCGAUCAUACAGUUGUAUAGCAUCGUCAUAUCUUUCCAUAGCUUCAAAUCGCAUGCCUGUUAACCGCAACAGAGGAUUGAGCAUCA
B13: chr13:100193941:100193942:-_ENSMUSG00000052727_ENSMUST00000064762|mus_mus|motif|central (ssRNA)
RNA: GGGAGUUCUACAGUCCGACGAUCUGUCUGAACUCUCUACAUGGUCAACAUAGAAGUUGAGAAUUCAUUUGUUUUCAAUCGGUUACUUCUCUCACUGAAUGUUUUCCAGGAAAAACAAAAACAAAAAACCAACCCAAGCAAACUCAACAGAGGAUUGAGCAUCA
B14: 12329608_12331292_3055_3pUTR_ENSMUSG00000032625_ENSMUST00000046121|mouse|control|control (ssRNA)
RNA: GGGAGUUCUACAGUCCGACGAUCGAGGGUACAAAUGAGAGUUUUUACAUUUUUCCUUCUUUUUACUUUUCCCAACAAUAGCACGCUUUCUGGUCCUAACUGCACCGCAGUCUCCGUUGCAUGAAGAAAACUUGGACCAGCUGGCAACAGAGGAUUGAGCAUCA
B15: chr7:44244176:44244177:+_ENSG00000106636_ENST00000223369|hu_mus|hu_hu_hu_mus_False|1_88 (ssRNA)
RNA: GGGAGUUCUACAGUCCGACGAUCACUGUCGCUCCGGACGUAGACAUGGCACAGAUACUCUUGUUCUUUGACAGAAGCUCUGCUGCCUUUCCCCGAGCGUUCCACAAUCAGUUGACUUGUAAAGGUCAUGAAUUCCUGAACGCUCAACAGAGGAUUGAGCAUCA
B16: chr5:37680062:37680063:+_ENSMUSG00000029121_ENSMUST00000031004|mus_hu|mus_mus_mus_hu_False|8_8 (ssRNA)
RNA: GGGAGUUCUACAGUCCGACGAUCUUUGGGUGUAGCUGGUACCUCGUACACAGGACCGUCAUACAUGCCCCUGGAAACCCCUUGCAAUCCAAAAACCUUAUUCCUGAUUUUGACGCGCUGGUACAGGUGCUCUGGGAACGCCUUCAACAGAGGAUUGAGCAUCA
B17: chrX:147030916:147030917:+_ENSG00000102081_ENST00000218200|hu_mus|motif|central (ssRNA)
RNA: GGGAGUUCUACAGUCCGACGAUCAAUAUUCCUACCUGCCAAGAUAUAAAAAAGGCACAGAUCAUACAACUCUUUUUUUUGCGGAUGAAAAUAACAAAUGUCACAUCACACACAUUUCAGGGUCCACUAAAAUACUGGAAAAGUCAACAGAGGAUUGAGCAUCA
B18: chr2:74714571:74714572:+_ENSMUSG00000027099_ENSMUST00000028511|mus_hu|FALSE|FALSE (ssRNA)
RNA: GGGAGUUCUACAGUCCGACGAUCCACCAAUAUCUAAUGUAACAUUCAAGUAAAACAUAUUUCAAAAGUUAAGACUCCUGAGACUAACACAUAACUCUAUGACAGCCUGCCUUUACCACGAUCUUCAAAAUAGUGCUGUUCAAUCAACAGAGGAUUGAGCAUCA
B19: chr3:152055631:152055632:+_ENSMUSG00000025437_ENSMUST00000117492|mus_mus|FALSE|FALSE (ssRNA)
RNA: GGGAGUUCUACAGUCCGACGAUCCCAGUUAUGAUUGGUUAGAGUAAUAAGAACAUUAUCGAAGCCAAAGUAUUUACAGUGCUACAAAGGGUUUGCUGGAUCUGCCUGUAGAACAAAGGUCAGAGAACCUAGUUACCAACUGUCCAACAGAGGAUUGAGCAUCA
B20: 128445144_128516786_240_5pUTR_ENSG00000075785_ENST00000265062|human|control|control (ssRNA)
RNA: GGGAGUUCUACAGUCCGACGAUCUCCAGAAUCUCCCAGGAUGAUAACCUUCAGCAACACUUUCUUCCUAGAGGUCAUCCUUCAAACGCGGCCGCUGCGCUGGGGGCUCCGGGCCGGGCGCGUCGCGAGGGCUCCCGCCGAGGACAACAGAGGAUUGAGCAUCA
B21: chr3:179287964:179287965:+_ENSG00000136518_ENST00000429709|hu_hu|hu_hu_hu_mus_True|1_108 (ssRNA)
RNA: GGGAGUUCUACAGUCCGACGAUCCUUUAGAGGUGAAAUGGCCUCCAUGUUCUCCCUGGGCACGCGGAGGGCAUUGGUGUCUAUGUAGUAGGUGGGCCCGCCCUGCUUGCCUUUGUCACCAUCAAUCUCCAUCAUUGUGCUUCCCAACAGAGGAUUGAGCAUCA
B22: chr4:17845017:17845018:+_ENSG00000109805_ENST00000514176|hu_mus|hu_hu_hu_mus_False|28_78 (ssRNA)
RNA: GGGAGUUCUACAGUCCGACGAUCGCUCUCUUAACUUGUAUCUUCAUUAAGGAACUCGCAAGGUUAAAGUUUACUUUUCUGUAGCGCAGCUGUUUUGGCUCGUCUGGUAGUCUCAUCCUUCAUUUCUGAUGGUGGUUCAUGAUCCAACAGAGGAUUGAGCAUCA

Molecular target: T1, UNK ZnF1-3
Assay: nsRBNS (natural sequence RNA bind-n-seq); RBNS binding buffer (assumed for nsRBNS): 25 mM Tris pH 7.5, 150 mM KCl, 3 mM MgCl2, 0.01% Triton X-100, 500 ug/ml BSA, 20 U/ml SUPERase-In, 4 C; UNK is unkempt and MSI1 is Musashi-1; names of the RNAs are library labels; protein concentration not given here; high values mean tight binding

Row | Binder | binding signal
1 | B1 | 1.57 enrichment R
2 | B2 | 1.19 enrichment R
3 | B3 | 1.69 enrichment R
4 | B4 | 1.05 enrichment R
5 | B5 | 0.647 enrichment R
6 | B6 | 0.648 enrichment R
7 | B7 | 1.41 enrichment R
8 | B8 | 0.967 enrichment R
9 | B9 | 1.49 enrichment R
10 | B10 | 1.16 enrichment R
11 | B11 | 1.26 enrichment R
12 | B12 | 0.673 enrichment R
13 | B13 | 1.2 enrichment R
14 | B14 | 0.4 enrichment R
15 | B15 | 0.486 enrichment R
16 | B16 | 0.816 enrichment R
17 | B17 | 1.41 enrichment R
18 | B18 | 1.42 enrichment R
19 | B19 | 1.07 enrichment R
20 | B20 | 0.879 enrichment R
21 | B21 | 0.806 enrichment R
22 | B22 | 0.429 enrichment R
